Assay results as given in PubChem BioAssay AID504466 (National Center for Advancing Translational Sciences (NCATS), 2011).
In all, about 330,000 compounds went through this assay and about 4,200 (1.3%) were called active. This list was built around the results that the source calls inconclusive (neither active nor inactive); the mix of calls is not that of the screen. The call rests on the fitted dose curve; in most records, active means well fitted activation curve with a large enough effect; inconclusive means small, poorly fitted or top-dose-only effect; inactive means no such curve, though single readings can be large or run the other way. A potency beside an inconclusive call is a rough fit, not a confirmed value.
Potency means the concentration at half of the fitted maximal effect; tags describe the fitted curve by direction and shape.

Test: qHTS screen for small molecules that induce genotoxicity in human embryonic kidney (HEK293T) cells expressing luciferase-tagged ELG1; further: nearly all actives have a fitted effect of over 60% in size; on activity change, positive = activation: % of control where 0% means no effect
Conditions: HEK293T ELG1-luciferase reporter, luminescence, 16 h; series mostly up to 46 µM; activity change, positive = activation: at the top concentration
How it was run: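 Genotoxicity was scored as increased ELG1-luciferase reporter signal, measured by ONE-Glo luminescence (30 min, room temperature). Compound or vehicle exposure of the HEK293T reporter cells lasted 16 hr at 37°C.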
With `O=C(Nc1ccc(SC(F)(F)F)cc1)c1ccccn1` the Potency was active: 2.31 µM.
For `Cc1ccc2nc(-c3sc4nc(C)ccc4c3N)[nH]c2c1`, the Potency was inconclusive: 2.06 µM [activator, partial curve].
For `NC(=O)c1c(NC(=O)c2cnccn2)sc2c1CCCC2`, the Potency was inconclusive: 13 µM [activator, partial curve, poor fit].
In the case of `Cc1ccc(C(=O)Nc2ccc(N3CCN(C)CC3)cc2)c(Cl)c1`, the Potency is reported as inconclusive: 22.4 µM [activator, single point].
With `COc1ccccc1OCCNC(=O)c1ccc2c(c1)CCC2` the Potency was active: 13 µM.
In the case of `CC(NC(=O)CN1C(=O)NC2(CCCCCC2)C1=O)c1ccccc1Cl` (centres undefined), the “activity change, positive = activation” value is reported as inactive: -0.913%.
For `COC(=O)c1ccccc1NC(=O)c1ccc(-c2ccc(Br)cc2)o1`, the Potency was active: 1.84 µM.
For `CCN(Cc1ccccc1)S(=O)(=O)c1cc(C(=O)NC2CCCCCC2)ccc1OC`, the “activity change, positive = activation” value was inactive: -3.22%.
For `O=C(CCc1nc2ccccc2c(=O)[nH]1)NCCN1C(=O)S/C(=C\c2ccc(Cl)cc2Cl)C1=O`, the Potency was inconclusive: 13 µM [activator, partial curve, poor fit].
With `COc1cc(SC)ccc1C(=O)NCCc1ccccc1` the Potency was inconclusive: 18.4 µM [activator, partial curve].
For `O=C(Nc1cc2c3c(c1)CC(=O)N3CCC2)C1CC1`, the Potency was inconclusive: 20.6 µM [activator, partial curve, poor fit].
With `CC1=NN(C(N)=S)C(=O)C1N=Nc1cccc2ccccc12` (centres undefined) the Potency was inconclusive: 18.3 µM [activator, partial curve, poor fit].
With `CCOC(=O)CN(C(=O)CNC(=O)c1cccs1)C(C(=O)NC1CCCCC1)c1cccs1` (centres undefined) the “activity change, positive = activation” value was inactive: -0.613%.
With `CC(C)(C)NC(=O)COC(=O)c1ccccc1Nc1ccc(SC(F)F)cc1` the Potency was inconclusive: 29.1 µM [activator, single point].
With `Fc1ccc(C2=Nn3c(nnc3-c3n[nH]c4c3CCC4)SC2)cc1` the Potency was active: 18.4 µM.
For `CCOC(=O)c1c(-c2ccc(C)cc2)csc1NC(=O)CCN1CC(C)OC(C)C1` (centres undefined), the “activity change, positive = activation” value was inactive: -8.47%.
In the case of `COc1ccc(C(=O)CC(=O)c2ccccc2O)cc1OC`, the Potency is reported as inconclusive: 20.6 µM [activator, partial curve, poor fit].
In the case of `O=C(NCCSc1ccccc1)c1cccnc1`, the Potency is reported as inconclusive: 18.4 µM [activator, partial curve, poor fit].
With `Cc1ccc(-n2ncc3c(NCc4ccccc4)ncnc32)cc1` the Potency was active: 4.61 µM.
In the case of `COc1ccccc1/C=C/C(=O)N1CCC(c2ccccc2)C1` (centres undefined), the Potency is reported as inconclusive: 16.4 µM [activator, partial curve].
With `Cc1sc2ncnc(N/N=C/c3ccccc3O)c2c1C` the Potency was inconclusive: 6.51 µM [activator, partial curve].
With `Cc1ccc(C)c(-c2nnc(NC(=O)Cc3ccccc3)o2)c1` the “activity change, positive = activation” value was inactive: -5.07%.
With `COC(=O)c1sc(N2C(=O)C(O)=C(C(=O)c3ccc(C)o3)C2c2ccc(OC)c(OC)c2)nc1C` (centres undefined) the Potency was inconclusive: 9.2 µM [activator, partial curve].
For `O=C(Nc1ccccc1Cl)C1Cc2ccccc2O/C1=N\O` (centres undefined), the Potency was inconclusive: 23.1 µM [activator, partial curve, poor fit].
For `COc1cc(Cl)ccc1OCc1cc(C(=O)N(C)CC2CCCCO2)no1` (centres undefined), the Potency was inconclusive: 20.6 µM [activator, single point].
In the case of `O=C(c1cccc(S(=O)(=O)N2CCCC2)c1)N1CCOCC1`, the “activity change, positive = activation” value is reported as inactive: 2.5%.
With `Cc1c(S(=O)(=O)N2CCN(c3ccc(F)cc3)CC2)c(=O)n(C)c(=O)n1C` the “activity change, positive = activation” value was inactive: 0.844%.
In the case of `CCCOc1ccc(/C=N/Nc2cccc([N+](=O)[O-])c2)c(O)c1`, the Potency is reported as inconclusive: 20.6 µM [activator, partial curve, poor fit].
In the case of `O=C(NC1CCCCC1)c1ccc([N+](=O)[O-])o1`, the “activity change, positive = activation” value is reported as inactive: -3.22%.
In the case of `COC(=O)CNc1c(-c2ccccn2)nc2ccc(Br)cn12`, the Potency is reported as active: 1.3 µM.
With `CN(C)c1ccc(NC(=O)N2CCOCC2)cc1` the “activity change, positive = activation” value was inactive: 15.4%.
For `COc1ccccc1P(=O)(Cc1ccccc1)c1ccccc1` (centres undefined), the “activity change, positive = activation” value was inactive: -7.55%.
In the case of `Cc1csc(NC(=O)Cc2ccc(F)cc2)n1`, the Potency is reported as inconclusive: 20.6 µM [activator, partial curve].
In the case of `N=c1sccn1CC(=O)Nc1ccccc1-c1ccccc1`, the Potency is reported as inconclusive: 29.1 µM [activator, single point].
With `Nc1cc(=O)[nH]c(SCC(=O)Nc2nnc(-c3ccccc3)s2)n1` the “activity change, positive = activation” value was inactive: 6.99%.
In the case of `COc1ccc(C(=O)Nc2cccc(/C=C(\CCC(=O)O)c3nc4ccccc4s3)c2)cc1`, the “activity change, positive = activation” value is reported as inactive: 0.476%.
For `O=C(NCc1cccs1)C(=O)NCC(c1ccco1)N1CCN(c2ccccc2F)CC1` (centres undefined), the “activity change, positive = activation” value was inactive: -11.4%.
For `COc1ccc(NC(=O)N(C)C[C@H]2Oc3ccc(NC(=O)NC4CCCCC4)cc3C(=O)N([C@H](C)CO)C[C@@H]2C)cc1`, the “activity change, positive = activation” value was inactive: 3.53%.
For `O=C(/C=C/c1ccccc1)NC1CCCc2ccccc21` (centres undefined), the “activity change, positive = activation” value was inactive: -1.57%.
With `Cc1ccsc1/C=N/NC(=O)Nc1ccccc1` the Potency was inconclusive: 7.3 µM [activator, partial curve, poor fit].
With `Cc1ccc(NC(=O)/C=C/c2ccc([N+](=O)[O-])s2)c(C)c1` the Potency was inconclusive: 4.11 µM [activator, single point].
With `O=C(C[C@H]1C/C=C\CC[C@H](Cc2ccc(F)cc2)C(=O)O[C@@H](c2ccccc2)CNC1=O)N[C@@H](CO)Cc1ccccc1` the “activity change, positive = activation” value was inactive: -6.01%.
In the case of `COCCn1c(C)cc(C(=O)CSc2nc3ccccc3c(=O)[nH]2)c1C`, the Potency is reported as inconclusive: 2.31 µM [activator, partial curve, poor fit].
For `O=C(Nc1nnc(SCC(=O)N2CCCCC2)s1)c1cccs1`, the “activity change, positive = activation” value was inactive: 2.26%.
With `COc1ccccc1NC(=O)CCCn1c(=S)[nH]c2ccccc2c1=O` the “activity change, positive = activation” value was inactive: -3.58%.
In the case of `COc1ccc(NC(=O)C(OC(=O)c2cnccn2)c2ccccc2)cc1Cl` (centres undefined), the “activity change, positive = activation” value is reported as inactive: 7.39%.
With `Cc1cccc(NC2=NC(C)(C)N=C(N)N2)c1` the “activity change, positive = activation” value was inactive: -15.8%.
In the case of `Cn1ccsc1=NC(=O)c1ccc(S(C)(=O)=O)cc1`, the Potency is reported as inconclusive: 16.4 µM [activator, partial curve].
In the case of `N/C(=N\OC(=O)COc1ccccc1Cl)c1ccc(Cl)cc1`, the Potency is reported as inconclusive: 29.1 µM [activator, partial curve, poor fit].
In the case of `N#C/C(=C\c1cccs1)C(=O)Nc1ccccn1`, the Potency is reported as inconclusive: 16.4 µM [activator, partial curve].
In the case of `Cc1cc(C(=O)N/N=C/c2ccc(Cl)c([N+](=O)[O-])c2)c(C)n1-c1ccc(F)cc1`, the Potency is reported as inconclusive: 18.4 µM [activator, partial curve, poor fit].
For `O=C(Oc1ccc(/C=N/NC(=O)c2ccco2)cc1)c1ccccc1`, the Potency was inconclusive: 16.4 µM [activator, partial curve, poor fit].
With `CC(=O)N1CCN(c2ccc(NC(=O)c3ccc(OCc4ccccc4)cc3)cc2)CC1` the Potency was inconclusive: 32.6 µM [activator, partial curve, poor fit].
In the case of `c1cncc(-c2nc(-c3ccc4c(c3)OCCO4)cs2)c1`, the Potency is reported as inconclusive: 2.59 µM [activator, full curve].
For `Cc1ccc(NC(=O)c2cc3ccccc3o2)nc1`, the Potency was active: 0.73 µM.
In the case of `COc1ccc2nc3c(cc2c1)c(NC(=O)CC(C)C)nn3CC(C)C`, the Potency is reported as inconclusive: 18.3 µM [activator, partial curve, poor fit].
In the case of `O=C(NNc1c(Cl)cc(Cl)cc1Cl)c1n[nH]c(=O)c2ccccc12`, the Potency is reported as inconclusive: 32.6 µM [activator, partial curve, poor fit].
In the case of `COc1ccc(CNC(=O)Cn2cnc3c(OCc4ccccc4)ncnc32)cc1`, the “activity change, positive = activation” value is reported as inactive: 0.848%.
With `COc1cccc(Nc2nnc(SCc3nc4ccccc4s3)s2)c1` the “activity change, positive = activation” value was inactive: 14.8%.
With `CC(=O)Nc1cccc(-c2csc(Nc3ccc(Cl)cn3)n2)c1` the Potency was inconclusive: 2.31 µM [activator, partial curve].
With `CSc1ccccc1OCc1cc(C(=O)N(C)CC2COCCO2)no1` (centres undefined) the Potency was inconclusive: 20.6 µM [activator, single point].
With `CCc1ccccc1OCC(=O)Nc1nc(-c2cccnc2)cs1` the Potency was inconclusive: 32.6 µM [activator, partial curve, poor fit].
With `Cc1cc(C)n(-c2cc(Oc3ccccc3)ncn2)n1` the Potency was inconclusive: 25.9 µM [activator, partial curve, poor fit].
With `CCOC(=O)Cc1csc(NC(=O)CCCc2ccccc2)n1` the “activity change, positive = activation” value was inactive: -8.68%.
With `COC(=O)Oc1ccc(/C=C/C(=O)OC(C)C)cc1OC(=O)OC` the “activity change, positive = activation” value was inactive: 14.3%.
With `O=C1C=C(Nc2cccc3cccnc23)c2ccccc2C1=O` the Potency was inconclusive: 1.46 µM [activator, partial curve, poor fit].
In the case of `CC(=O)Nc1ccc(NC(=O)c2ccccc2F)cc1`, the Potency is reported as inconclusive: 20.6 µM [activator, single point].
For `O=C(CC(=O)NCCc1ccccc1)NCCc1ccccc1`, the “activity change, positive = activation” value was inactive: 0.598%.
In the case of `COc1cccc(-c2nc3ccc(C(=O)NC(C)Cc4cccnc4)cc3o2)c1` (centres undefined), the Potency is reported as inconclusive: 4.47 µM [activator, partial curve, poor fit].
In the case of `CSc1nnc(NC(=O)c2ccc(S(=O)(=O)N3CCOCC3)cc2)s1`, the Potency is reported as inconclusive: 18.3 µM [activator, partial curve].
In the case of `COc1cc(CNC(=O)c2ccccc2NC(=O)C2=C(C)OCCS2)cc(OC)c1OC`, the “activity change, positive = activation” value is reported as inactive: -9.22%.
With `CCCCOc1ccc(-c2csc(N)n2)cc1[N+](=O)[O-]` the Potency was inconclusive: 9.2 µM [activator, partial curve].
With `c1ccc(C[n+]2c(-c3ccccc3)csc2Nc2ccccc2)cc1` the “activity change, positive = activation” value was inactive: -3.62%.
For `Cc1ccc(C(=O)NCCn2cc(SCC(=O)Nc3nnc(C)s3)c3ccccc32)cc1`, the Potency was inconclusive: 2.59 µM [activator, single point].
